± gives the uncertainty stated by the source. This is one part of the list. A small y stands for phosphotyrosine.
These binders were tested against GRB2 (endogenous complexes from cell lysate), P62993 (assay: GRB2 complex binding differential signal (pY peptide minus Ala control peptide) (fluorescence intensity units); higher = stronger GRB2 complex binding). Settings: MCF7.
For yCFAGK [ALK_1096/A1], the “GRB2 complex binding differential signal” value was 256 ± 360. In the case of yDIMKT [KIT_900/A1], the “GRB2 complex binding differential signal” value is reported as 681 ± 260. yIDPTQ [KIT_570/A1] was tested, and the “GRB2 complex binding differential signal” value was 8830 ± 1700. With yVLSSR [KRCM_125/A1] the “GRB2 complex binding differential signal” value was 2360 ± 750. For yISPRI [LCK_192/A1], the “GRB2 complex binding differential signal” value was 25900 ± 6200. With yMDMKP [KIT_721/A1] the “GRB2 complex binding differential signal” value was 1590 ± 470. yEGQVS [ALK_1131/A1] was tested, and the “GRB2 complex binding differential signal” value was 1290 ± 500. In the case of yVYIDP [KIT_568/A1], the “GRB2 complex binding differential signal” value is reported as 2.6 ± 260. For yELGME [KS6B1_62/A1], the “GRB2 complex binding differential signal” value was 301 ± 240. With yESPND [LCP2_113/A1] the “GRB2 complex binding differential signal” value was 11600 ± 1600. yKNLLH [KIT_703/A1] was tested, and the “GRB2 complex binding differential signal” value was 50800 ± 6200. For yQPQPG [LCK_505/A1], the “GRB2 complex binding differential signal” value was 4280 ± 470. For yYPLKS [KRCM_173/A1], the “GRB2 complex binding differential signal” value was 1880 ± 1100. For yPLKSM [KRCM_174/A1], the “GRB2 complex binding differential signal” value was 446 ± 820. In the case of yVVKGN [KIT_823/A1], the “GRB2 complex binding differential signal” value is reported as 1850 ± 470. yESPNE [LCP2_128/A1] was tested, and the “GRB2 complex binding differential signal” value was 5480 ± 3400. With ySNLAN [KIT_936/A1] the “GRB2 complex binding differential signal” value was 38900 ± 4500.

Same assay, conditions: MCF10A
For yCFAGK [ALK_1096/A1], the “GRB2 complex binding differential signal” value was 165 ± 420. For yDIMKT [KIT_900/A1], the “GRB2 complex binding differential signal” value was 883 ± 200. For yIDPTQ [KIT_570/A1], the “GRB2 complex binding differential signal” value was 4600 ± 620. With yVLSSR [KRCM_125/A1] the “GRB2 complex binding differential signal” value was 1290 ± 570. With yISPRI [LCK_192/A1] the “GRB2 complex binding differential signal” value was 14100 ± 2600. With yMDMKP [KIT_721/A1] the “GRB2 complex binding differential signal” value was 1150 ± 1600. For yEGQVS [ALK_1131/A1], the “GRB2 complex binding differential signal” value was 1460 ± 340. For yVYIDP [KIT_568/A1], the “GRB2 complex binding differential signal” value was 83.1 ± 340. For yELGME [KS6B1_62/A1], the “GRB2 complex binding differential signal” value was 93.3 ± 210. In the case of yESPND [LCP2_113/A1], the “GRB2 complex binding differential signal” value is reported as 5420 ± 810. In the case of yKNLLH [KIT_703/A1], the “GRB2 complex binding differential signal” value is reported as 7070 ± 2200. With yQPQPG [LCK_505/A1] the “GRB2 complex binding differential signal” value was 4320 ± 670. In the case of yYPLKS [KRCM_173/A1], the “GRB2 complex binding differential signal” value is reported as 1340 ± 400. With yPLKSM [KRCM_174/A1] the “GRB2 complex binding differential signal” value was 1170 ± 410. For yVVKGN [KIT_823/A1], the “GRB2 complex binding differential signal” value was 1740 ± 650. With yESPNE [LCP2_128/A1] the “GRB2 complex binding differential signal” value was 5790 ± 1000. With ySNLAN [KIT_936/A1] the “GRB2 complex binding differential signal” value was 18500 ± 5100.

Same assay, conditions: MDA-MB-231
yCFAGK [ALK_1096/A1] was tested, and the “GRB2 complex binding differential signal” value was 208 ± 260. With yDIMKT [KIT_900/A1] the “GRB2 complex binding differential signal” value was 888 ± 470. For yIDPTQ [KIT_570/A1], the “GRB2 complex binding differential signal” value was 3710 ± 2800. With yVLSSR [KRCM_125/A1] the “GRB2 complex binding differential signal” value was 1530 ± 420. yISPRI [LCK_192/A1] was tested, and the “GRB2 complex binding differential signal” value was 3310 ± 470. yMDMKP [KIT_721/A1] was tested, and the “GRB2 complex binding differential signal” value was 989 ± 280. yEGQVS [ALK_1131/A1] was tested, and the “GRB2 complex binding differential signal” value was 783 ± 390. For yVYIDP [KIT_568/A1], the “GRB2 complex binding differential signal” value was 1060 ± 360. For yELGME [KS6B1_62/A1], the “GRB2 complex binding differential signal” value was 371 ± 270. In the case of yESPND [LCP2_113/A1], the “GRB2 complex binding differential signal” value is reported as 3250 ± 420. In the case of yKNLLH [KIT_703/A1], the “GRB2 complex binding differential signal” value is reported as 4030 ± 720. With yQPQPG [LCK_505/A1] the “GRB2 complex binding differential signal” value was 839 ± 290. For yYPLKS [KRCM_173/A1], the “GRB2 complex binding differential signal” value was 1100 ± 340. With yPLKSM [KRCM_174/A1] the “GRB2 complex binding differential signal” value was 336 ± 310. yVVKGN [KIT_823/A1] was tested, and the “GRB2 complex binding differential signal” value was 942 ± 490. yESPNE [LCP2_128/A1] was tested, and the “GRB2 complex binding differential signal” value was 4120 ± 1000. For ySNLAN [KIT_936/A1], the “GRB2 complex binding differential signal” value was 6610 ± 1100.

Same assay, conditions: T47D
For yCFAGK [ALK_1096/A1], the “GRB2 complex binding differential signal” value was 180 ± 1100. In the case of yDIMKT [KIT_900/A1], the “GRB2 complex binding differential signal” value is reported as 268 ± 840. In the case of yIDPTQ [KIT_570/A1], the “GRB2 complex binding differential signal” value is reported as 2280 ± 1000. For yVLSSR [KRCM_125/A1], the “GRB2 complex binding differential signal” value was 1760 ± 1200. In the case of yISPRI [LCK_192/A1], the “GRB2 complex binding differential signal” value is reported as 4710 ± 1200. For yMDMKP [KIT_721/A1], the “GRB2 complex binding differential signal” value was 920 ± 870. With yEGQVS [ALK_1131/A1] the “GRB2 complex binding differential signal” value was 577 ± 1000. In the case of yVYIDP [KIT_568/A1], the “GRB2 complex binding differential signal” value is reported as 850 ± 1000. For yESPND [LCP2_113/A1], the “GRB2 complex binding differential signal” value was 3470 ± 1400. In the case of yKNLLH [KIT_703/A1], the “GRB2 complex binding differential signal” value is reported as 27700 ± 6100. With yQPQPG [LCK_505/A1] the “GRB2 complex binding differential signal” value was 722 ± 960. yYPLKS [KRCM_173/A1] was tested, and the “GRB2 complex binding differential signal” value was 1050 ± 1000. yPLKSM [KRCM_174/A1] was tested, and the “GRB2 complex binding differential signal” value was 304 ± 910. yVVKGN [KIT_823/A1] was tested, and the “GRB2 complex binding differential signal” value was 375 ± 770. With yESPNE [LCP2_128/A1] the “GRB2 complex binding differential signal” value was 2320 ± 1200. For ySNLAN [KIT_936/A1], the “GRB2 complex binding differential signal” value was 17500 ± 2300.

From the supplement of paper PMC3694890
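Further: phosphopeptide probes on the chip at 1–4 µM, lysate proteins bound in 20 mM Tris pH 7.0 buffer with 140 mM NaCl, 1% Triton X-100 and 5% glycerol.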
